Test [1] addresses T1, HLA-A*02:01/MAGE-A4^230-239 displayed on cells (MAGE-A4^230-239 pulsed T2 cells; NCI-H1703, A375, THP1, … (human, UniProt P04439 25-365 at identity 0.94); P61769 part only). Briefly: cell-based or functional assay.
Test [2] deals with T2, HLA-A*02:01/MAGE-A4^230-239, soluble recombinant biotinylated pHLA (human, UniProt P04439 25-299 at identity 0.94); P61769 part only, biotinylated).
T2 construct: Empty biotinylated HLA-A2 monomers (Tetramer Shop) loaded with synthetic peptide; also called MAGE-A4 pMHC; MAGE-A4-pHLA
Briefly: SPR, biotinylated pHLA on neutravidin chip, scDb without His-tag injected (Assay 6-2). (In general: Surface plasmon resonance follows binding to a sensor surface in real time, without labels.)

The target in test [3] is T2, HLA-A*02:01/MAGE-A4^230-239, soluble …. Briefly: ELISA, soluble biotinylated pHLA on neutravidin, scDb, protL-HRP. (ELISA stands for enzyme-linked immunosorbent assay.)
In test [4] the target is T1, HLA-A*02:01/MAGE-A4^230-239 displayed …. The test is described as follows: cell-based or functional assay. This is another data set of the same source.
Test [5] shares this target. The test is described as follows: cell-based or functional assay. This is another data set of the same source.
Test [6] shares this target. The test is described as follows: cell-based or functional assay. The source holds these as a separate data set.
Test [7] concerns the target T3, HLA-A*02:01 loaded with MAGE-A3 homologue peptide, soluble biotinylated (human, UniProt P04439 25-299 at identity 0.94); P61769 part only, biotinylated).
T3 construct: HLA monomer as for m1
Briefly: pHLA capture ELISA: biotinylated pHLA on neutravidin, scFv-phage, anti-M13 antibody detection [cont.) D].

The target in test [8] is T4, HLA-A*02:01 loaded with MAGE-C2 homologue peptide, soluble biotinylated (human, UniProt P04439 25-299 at identity 0.94); P61769 part only, biotinylated).
T4 construct: HLA monomer as for m1
Described as above.

The target of test [9] is T5, HLA-A*02:01 loaded with MAGE-A1 homologue peptide, soluble biotinylated (human, UniProt P04439 25-299 at identity 0.94); P61769 part only, biotinylated).
T5 construct: HLA monomer as for m1
The test is described as above.

The target in test [10] is T6, HLA-A*02:01 loaded with MAGE-A9 homologue peptide, soluble biotinylated (human, UniProt P04439 25-299 at identity 0.94); P61769 part only, biotinylated).
T6 construct: HLA monomer as for m1
The test is described as above.

For test [11], the target named is T7, HLA-A*02:01 loaded with MAGE-A11 homologue peptide, soluble biotinylated (human, UniProt P04439 25-299 at identity 0.94); P61769 part only, biotinylated).
T7 construct: HLA monomer as for m1
The test is described as above.

The target in test [12] is T8, HLA-A*02:01 loaded with MAGE-B2 homologue peptide, soluble biotinylated (human, UniProt P04439 25-299 at identity 0.94); P61769 part only, biotinylated).
T8 construct: HLA monomer as for m1
Described as above.

The target of test [13] is T9, HLA-A*02:01 loaded with MAGE-A12 homologue peptide, soluble biotinylated (human, UniProt P04439 25-299 at identity 0.94); P61769 part only, biotinylated).
T9 construct: HLA monomer as for m1
The test is described as above.

The target of test [14] is T10, HLA-A*02:01 loaded with MAGE-A2 homologue peptide, soluble biotinylated (human, UniProt P04439 25-299 at identity 0.94); P61769 part only, biotinylated).
T10 construct: HLA monomer as for m1
Described as above.

Test [15] concerns the target T11, HLA-A*02:01 loaded with MAGE-A10 homologue peptide, soluble biotinylated (human, UniProt P04439 25-299 at identity 0.94); P61769 part only, biotinylated).
T11 construct: HLA monomer as for m1
The description is as above.

In test [16] the target is T12, HLA-A*02:01 loaded with MAGE-B10 homologue peptide, soluble biotinylated (human, UniProt P04439 25-299 at identity 0.94); P61769 part only, biotinylated).
T12 construct: HLA monomer as for m1
The description is as above.

Test [17] addresses T13, HLA-A*02:01 loaded with MAGE-B6 homologue peptide, soluble biotinylated (human, UniProt P04439 25-299 at identity 0.94); P61769 part only, biotinylated).
T13 construct: HLA monomer as for m1
Described as above.

Test [18] has as its target T14, HLA-A*02:01 loaded with MAGE-B4 homologue peptide, soluble biotinylated (human, UniProt P04439 25-299 at identity 0.94); P61769 part only, biotinylated).
T14 construct: HLA monomer as for m1
The description is as above.

B1: AM13 scDb (bispecific antibody)
chain: [about 100 residues not written out]FGPGTKVDIKGGGGSEVQLQQSGPELVKPGASMKISCKASGYSFTGYTMNWVKQSHGKNLEWMGLINPYKGVSTYNQKFKDKATLTVDKSSSTAYMELLSLTSEDSAVYYCARSGYYGDSDWYFDVWGAGTTVTVSSGGGGSGGGGSGGGGSDIQMTQTTSSLSASLGDRVTISCRASQDIRNYLNWYQQKPDGTVKLLIYYTSRLHSGVPSKFSGSGSGTDYSLTISNLEQEDIATYFCQQGNTLPWTFAGGTKLEIKGGGGSQVQLVQSGAEVKKPGASVKVSCKVSGYTLTELSMHWVRQAPGKGLEWMGGFDPYLARTIYAQKFQGRVTMTEDTSTDTAYMELSSLRSEDTAVYYCATDQGASWGFYWGQGTLVTVSS
notes: as m68; without a His-tag in the SPR assay
Usually Kd stands for the equilibrium constant for the complex coming apart. Broadly, the EC50 is the midpoint of the concentration-response curve. Take B1: the “IFNγ EC50 vs. target positive cells (pM)” value in test [1] amounted to 5.8 pM. Besides, in test [2], the dissociation constant (Kd) stood at 7 nM. For the same molecule, the concentration for a half-maximal effect (EC50) in test [3] came out at 0.43 nM. Besides, in [4], the “EC50 vs. NCI-H1703 (pM), T-cell specific killing” value came out at 3.9 pM.

B2: AM15 scDb (bispecific antibody)
chain: [about 100 residues not written out]FGPGTKVDIKGGGGSEVQLQQSGPELVKPGASMKISCKASGYSFTGYTMNWVKQSHGKNLEWMGLINPYKGVSTYNQKFKDKATLTVDKSSSTAYMELLSLTSEDSAVYYCARSGYYGDSDWYFDVWGAGTTVTVSSGGGGSGGGGSGGGGSDIQMTQTTSSLSASLGDRVTISCRASQDIRNYLNWYQQKPDGTVKLLIYYTSRLHSGVPSKFSGSGSGTDYSLTISNLEQEDIATYFCQQGNTLPWTFAGGTKLEIKGGGGSQVQLVQSGAEVKKPGASVKVSCKVSGYTLTELSMHWVRQAPGKGLEWMGGFDPEDGETIYAQKFQGRVTMTEDTSTDTAYMELSSLRSEDTAVYYCATDQGSSWGFYWGQGTLVTVSS
notes: as m68
As to B2, the “IFNγ EC50 vs. target positive cells (pM)” value in [1] was 10.6 pM. For the same molecule, in [5], the “EC50 vs. C-33-A (pM), T-cell specific killing” value is 11 pM and the “EC50 vs. HuTu80 (pM), T-cell specific killing” value came to 7.1 pM. Moreover, the EC50 in test [3] stood at 1.36 nM. Moreover, the “EC50 vs. NCI-H1703 (pM), T-cell specific killing” value in test [4] is 2.2 pM. In addition, in test [6], the “EC50 vs. A375 (pM), T-cell specific killing” value came to 4.2 pM.

B3: AM15 scFv displayed on phage (scFv)
scFv: QVQLVQSGAEVKKPGASVKVSCKVSGYTLTELSMHWVRQAPGKGLEWMGGFDPEDGETIYAQKFQGRVTMTEDTSTDTAYMELSSLRSEDTAVYYCATDQGSSWGFYWGQGTLVTVSSKLSGSASAPKLEEGEFSEARV[about 100 residues not written out]FGPGTKVDIK
notes: scFv on the surface of phage particles; also called AM15 phages
B3: the binding result in test [7], in test [8], in [9], in [10], in test [11] and in [12] was “no binding (tested: 10^9 phages/well)” in each case. For the same molecule, the binding result in test [13], in test [14], in [15], in [16], in test [17] and in [18] was “no binding (tested: 10^9 phages/well)” in each case.

The values above are taken from patent US20260209359A1 (NEXTERA, published 2026).
